This is one part of the list.

B1: PhoQ; a variant is named by its letters at X, in order, P23837 (parent)
chain: MKKLLRLFFPLSLRVRFLLATAAVVLVLSLAYGMVALIGYSVSFDKTTFRLLRGESNLFYTLAKWENNKLHVELPENIDKQSPTMTLIYDENGQLLWAQRDVPWLMKMIQPDWLKSNGFHEIEADVNDTSLLLSGDHSIQQQLQEVREDDDDAEMTHSVAVNVYPATSRMPKLTIVVVDTIPVELKSSYMVWSWFIYVLSANLLLVIPLLWVAAWWSLRPIEALAKEVRELEEHNRELLNPATTRELTSLVRNLNRLLKSERERYDKYRTTLTDLTHSLKTPLXXLQXXLRSLRSEKMSVSDAEPVMLEQISRISQQIGYYLHRASMRGGTLLSRELHPVAPLLDNLTSALNKVYQRKGVNISLDISPEISFVGEQNDFVEVMGNVLDNACKYCLEFVEISARQTDEHLYIVVEDDGPGIPLSKREVIFDRGQRVDTLRPGQGVGLAVAREITEQYEGKIVAGESMLGGARMEVIFGRQHSAPKDE

In the test the parent is B1. As to the kind of experiment: enrichment ratio after two sorts for PhoP signalling (ratio (wild type AVST 3.29)); higher = more functional. Conditions: with PhoP (E. coli).
Consider TNYT, for which the enrichment ratio is not above 0.25.
As to EASN, the enrichment ratio was not above 0.25.
To SPQY belongs not above 0.25.
The same measure for NPIS: not above 0.25; for KPKF: not above 0.25; for HPSV: not above 0.25.
The same measure for DSWT: not above 0.25; for PNGL: not above 0.25.
On to YNFH, for which the enrichment ratio is not above 0.25.
To MMWQ belongs not above 0.25.
The same measure for AENN: not above 0.25; for PGPI: not above 0.25.
On to PWSV, for which the enrichment ratio is not above 0.25.
The same measure for YGGE: not above 0.25.
The same measure for MMVK: not above 0.25; for DIVL: not above 0.25.
To RWAS belongs not above 0.25.
On to EPFT, for which the enrichment ratio was not above 0.25.
As to TAKQ, the enrichment ratio was not above 0.25.
The same measure for NVRG: not above 0.25.
The same measure for HIWY: not above 0.25.
To RQGE belongs not above 0.25; to VCLF, 0.991.
For the variant KKSN, the enrichment ratio is not above 0.25.
As to VVQR, the enrichment ratio was not above 0.25.
The same measure for NSNF: not above 0.25.
The same measure for WIGW: not above 0.25.
The same measure for YICH: not above 0.25; for WCHA: not above 0.25; for FNFD: not above 0.25.
Turning to IPDH, the enrichment ratio is not above 0.25.
To LDGW belongs not above 0.25.
On to IVWH, for which the enrichment ratio is not above 0.25.
For VHHF, the enrichment ratio was not above 0.25.
To ITGE belongs not above 0.25.
As to QEVG, the enrichment ratio is not above 0.25.
The same measure for QDQY: not above 0.25; for LCEM: not above 0.25.
As for FCWW, the enrichment ratio was not above 0.25.
The same measure for WKIR: not above 0.25.
With DWSK, the enrichment ratio was not above 0.25.
To DWTG belongs not above 0.25.
Turning to SNEA, the enrichment ratio is not above 0.25.
To RTPE belongs not above 0.25.
The same measure for KPRP: not above 0.25.
To EFDQ belongs not above 0.25; to FTWM, not above 0.25.
Turning to MGAR, the enrichment ratio was not above 0.25.
The same measure for PVKR: not above 0.25; for IGQE: not above 0.25; for TYRA: not above 0.25.
The same measure for ELGA: not above 0.25; for ATCQ: 3.89; for STKS: not above 0.25.
The same measure for SGWI: 2.76; for QNPC: not above 0.25.
On to CPPL, for which the enrichment ratio is not above 0.25.
With ADNH, the enrichment ratio was not above 0.25.
The same measure for REIY: not above 0.25; for APDT: not above 0.25; for VGDY: not above 0.25.
To ITTN belongs not above 0.25; to EVYH, not above 0.25.
RHFL: the enrichment ratio was not above 0.25.
The same measure for WVID: not above 0.25; for RNID: not above 0.25; for QIWF: not above 0.25.
The same measure for NSHP: not above 0.25; for VGEA: not above 0.25; for HVTL: not above 0.25.
The same measure for PFLN: not above 0.25.
Consider IATG, for which the enrichment ratio was not above 0.25.
The same measure for GVAN: not above 0.25; for PERE: not above 0.25; for MVRN: not above 0.25.
Turning to GLKM, the enrichment ratio is not above 0.25.
The same measure for VEGM: not above 0.25.
The same measure for LLCL: not above 0.25.
As for NGDQ, the enrichment ratio is not above 0.25.
Take IKDF: the enrichment ratio was not above 0.25.
To TDKR belongs not above 0.25.
The same measure for YKLD: not above 0.25.
With WHYF, the enrichment ratio was not above 0.25.
To HGLH belongs 1.59.
VREC: the enrichment ratio is not above 0.25.
To IHKW belongs not above 0.25; to KGAK, not above 0.25; to YPNY, not above 0.25.
To TKMH belongs 0.291; to QLAM, not above 0.25; to RCMI, not above 0.25.
The same measure for MYKM: not above 0.25; for VCWD: not above 0.25; for WGFA: not above 0.25.
In the case of KGIL, the enrichment ratio is not above 0.25.
The same measure for SLED: not above 0.25.
To PWEF belongs not above 0.25; to FKQF, not above 0.25.
To TSMN belongs 12.3.
Regarding FLEL, the enrichment ratio is not above 0.25.
The same measure for RDVP: not above 0.25.
The same measure for FWHK: not above 0.25.
Take PWRP: the enrichment ratio is not above 0.25.
The same measure for GICS: 11.2; for KKLT: not above 0.25; for PDHP: not above 0.25.
The same measure for SVLN: 7.1; for VDCY: not above 0.25.
To HHAI belongs not above 0.25; to HWYN, not above 0.25.
Regarding MHND, the enrichment ratio is not above 0.25.
Consider EARF, for which the enrichment ratio is not above 0.25.
The same measure for MNGG: not above 0.25; for IQFN: not above 0.25; for EEDV: not above 0.25.
To IVST belongs not above 0.25.
To NADW belongs not above 0.25.
On to TQQP, for which the enrichment ratio was not above 0.25.
To FCHY belongs not above 0.25; to HRPQ, not above 0.25.
On to INKW, for which the enrichment ratio is not above 0.25.
For the variant GEQL, the enrichment ratio was not above 0.25.
To YPAW belongs not above 0.25; to TMSK, not above 0.25; to SIFL, not above 0.25.
To SHSD belongs not above 0.25.
Consider WMKE, for which the enrichment ratio is not above 0.25.
To MSDP belongs not above 0.25.
The same measure for IFHQ: not above 0.25; for AGIS: 2.92; for DTTN: not above 0.25.
To NWHG belongs not above 0.25.
For the variant WPLA, the enrichment ratio is not above 0.25.
The same measure for RSHY: not above 0.25; for LPIA: not above 0.25; for PWPP: not above 0.25.
The same measure for VLYT: not above 0.25; for ILNY: not above 0.25.
Regarding FVNK, the enrichment ratio was not above 0.25.
The same measure for EESH: not above 0.25; for GLQD: not above 0.25.
The same measure for TIEV: 1.07; for KKFL: not above 0.25.
To ENYN belongs not above 0.25; to NVYD, not above 0.25; to TWWA, not above 0.25.
On to DVRW, for which the enrichment ratio was not above 0.25.
Consider WDGW, for which the enrichment ratio was not above 0.25.
The same measure for YIIY: not above 0.25; for AMER: not above 0.25; for YLPR: not above 0.25.
The same measure for WSKY: not above 0.25; for VFME: not above 0.25.
The same measure for REIW: not above 0.25; for YGAK: not above 0.25; for WPMA: not above 0.25.
As to QRPC, the enrichment ratio is not above 0.25.
As to HQCY, the enrichment ratio is not above 0.25.
To LARG belongs not above 0.25; to HKYD, not above 0.25.
Regarding DLSS, the enrichment ratio is not above 0.25.
To EATK belongs not above 0.25; to LNAL, not above 0.25; to RHLM, not above 0.25.
To YGRK belongs not above 0.25.
On to MFDE, for which the enrichment ratio is not above 0.25.
To SMKC belongs not above 0.25.
The same measure for RYRL: not above 0.25.
Turning to GDSC, the enrichment ratio came to 5.26.
The same measure for TCLP: 0.467; for WNFT: not above 0.25.
The same measure for LKPD: not above 0.25; for SMAW: 1.9; for LRKQ: not above 0.25.
The same measure for YEYD: not above 0.25; for KYIP: not above 0.25; for HQHM: not above 0.25.
As to GIWC, the enrichment ratio was not above 0.25.
Take RRRG: the enrichment ratio is not above 0.25.
On to WALE, for which the enrichment ratio was not above 0.25.
As to PITG, the enrichment ratio is not above 0.25.
To VALG belongs 10.2.
The same measure for CFTH: not above 0.25; for LVWK: not above 0.25; for QVAF: 1.05.
To YLTI belongs 0.304; to VGFS, not above 0.25.
As for KDLP, the enrichment ratio is not above 0.25.
Take TMNS: the enrichment ratio is 7.25.
HMRS: the enrichment ratio is not above 0.25.
To RMNQ belongs not above 0.25.
The same measure for VAVN: not above 0.25.
To RRLI belongs not above 0.25; to NNTY, not above 0.25.
In the case of YELD, the enrichment ratio is not above 0.25.
The same measure for FLGQ: not above 0.25.
The same measure for MEDH: not above 0.25; for EEWL: not above 0.25; for LPDY: not above 0.25.
To HLGF belongs not above 0.25.
As to HSFF, the enrichment ratio is not above 0.25.
For MYMQ, the enrichment ratio was not above 0.25.
For MVTH, the enrichment ratio was determined as 2.25.
The same measure for MHYH: not above 0.25; for AYWS: not above 0.25; for GACK: not above 0.25.
The same measure for GILN: 10.6.
HSSW: the enrichment ratio was not above 0.25.
To LGCV belongs not above 0.25.
To VTEK belongs not above 0.25; to QDCG, not above 0.25.
The same measure for NQTA: not above 0.25.
As for HEIA, the enrichment ratio was not above 0.25.
The same measure for TDTP: 1.02; for PFCD: not above 0.25; for KRVC: not above 0.25.
On to NNSS, for which the enrichment ratio was not above 0.25.
On to YWHC, for which the enrichment ratio is not above 0.25.
As to AYGQ, the enrichment ratio is not above 0.25.
To HLTQ belongs not above 0.25.
The same measure for RELY: not above 0.25.
To DYWG belongs not above 0.25; to YKGR, not above 0.25.
Regarding SEKH, the enrichment ratio was not above 0.25.
The same measure for LTTL: not above 0.25.
The same measure for RPAK: not above 0.25; for LLYW: not above 0.25.
To VLAC belongs not above 0.25; to GPYN, not above 0.25.
As to FQHP, the enrichment ratio is not above 0.25.
To QGMR belongs not above 0.25; to NGQA, not above 0.25; to TEMC, 18.9.
To DLQC belongs not above 0.25.
To YDWT belongs not above 0.25; to SCLW, 0.544.
Turning to EPHP, the enrichment ratio was not above 0.25.
Consider VPLR, for which the enrichment ratio was not above 0.25.
Take LKQP: the enrichment ratio is not above 0.25.
The same measure for TVNL: 2.08; for FTNQ: not above 0.25; for VPRK: not above 0.25.
In the case of MNCA, the enrichment ratio is not above 0.25.
To IEQR belongs not above 0.25; to MNGA, not above 0.25; to CNFI, not above 0.25.
To PEMT belongs not above 0.25; to GFGF, not above 0.25; to IYRV, not above 0.25.
Regarding THPK, the enrichment ratio was not above 0.25.
To REHQ belongs not above 0.25; to LFRN, not above 0.25; to PHNN, not above 0.25.
As to YLSR, the enrichment ratio was not above 0.25.
To IMRR belongs not above 0.25; to MPTM, not above 0.25; to DKIQ, not above 0.25.
To NRGN belongs not above 0.25; to QNAP, not above 0.25; to LLNK, not above 0.25.
Consider KSWS, for which the enrichment ratio is not above 0.25.
On to GQVD, for which the enrichment ratio was not above 0.25.
The same measure for EFKV: not above 0.25.
The same measure for MWLD: not above 0.25; for DWTC: not above 0.25; for KQTA: not above 0.25.
To EAQM belongs not above 0.25.
In the case of FQHV, the enrichment ratio is not above 0.25.
Consider GISP, for which the enrichment ratio is not above 0.25.
The same measure for DASE: not above 0.25; for HITI: not above 0.25.
The same measure for TVYQ: 3.34; for VRTH: not above 0.25; for GSDV: not above 0.25.
With NGKY, the enrichment ratio is not above 0.25.
The same measure for NWCY: not above 0.25; for KFHG: not above 0.25.
To NAYM belongs not above 0.25; to FHHL, not above 0.25.
To KVSI belongs not above 0.25.
For the variant YSWW, the enrichment ratio was not above 0.25.
The same measure for SVYK: not above 0.25; for RAYY: not above 0.25.
To KECA belongs not above 0.25; to NNFM, not above 0.25.
To FKSI belongs not above 0.25.
As to KFAT, the enrichment ratio was not above 0.25.
To PDIC belongs not above 0.25.
The same measure for WSYM: not above 0.25.
To VVLD belongs not above 0.25; to TFSY, not above 0.25; to EFEV, not above 0.25.
Turning to IMAC, the enrichment ratio was not above 0.25.
The same measure for KWQA: not above 0.25; for DHLE: not above 0.25.
Regarding IELN, the enrichment ratio is 1.96.
To LEIW belongs not above 0.25; to RTYH, not above 0.25; to IHGV, not above 0.25.
Consider EKED, for which the enrichment ratio was not above 0.25.
The same measure for FQGN: not above 0.25; for NQIM: not above 0.25.
The same measure for IISG: not above 0.25; for NNFH: not above 0.25.
Consider GYKG, for which the enrichment ratio was not above 0.25.
To YIWA belongs not above 0.25.

Source of the values: a collection of fitness landscapes (doi:10.1126/science.1257360).
